Common to all, as to assay: co-IP; HEK293 cells transfected with epitope-tagged expression plasmids, lysed 24 h later; lysates immunoprecipitated with anti-Myc or anti-Flag beads and immunoblotted; in Fig. 7f,g with SDC4 overexpressed or knocked down by siRNA
Assay [1] deals with T1, CYLD-(M1) (deleted for amino acids 556–655) (UniProt Q9NQC7).
T1 sequence: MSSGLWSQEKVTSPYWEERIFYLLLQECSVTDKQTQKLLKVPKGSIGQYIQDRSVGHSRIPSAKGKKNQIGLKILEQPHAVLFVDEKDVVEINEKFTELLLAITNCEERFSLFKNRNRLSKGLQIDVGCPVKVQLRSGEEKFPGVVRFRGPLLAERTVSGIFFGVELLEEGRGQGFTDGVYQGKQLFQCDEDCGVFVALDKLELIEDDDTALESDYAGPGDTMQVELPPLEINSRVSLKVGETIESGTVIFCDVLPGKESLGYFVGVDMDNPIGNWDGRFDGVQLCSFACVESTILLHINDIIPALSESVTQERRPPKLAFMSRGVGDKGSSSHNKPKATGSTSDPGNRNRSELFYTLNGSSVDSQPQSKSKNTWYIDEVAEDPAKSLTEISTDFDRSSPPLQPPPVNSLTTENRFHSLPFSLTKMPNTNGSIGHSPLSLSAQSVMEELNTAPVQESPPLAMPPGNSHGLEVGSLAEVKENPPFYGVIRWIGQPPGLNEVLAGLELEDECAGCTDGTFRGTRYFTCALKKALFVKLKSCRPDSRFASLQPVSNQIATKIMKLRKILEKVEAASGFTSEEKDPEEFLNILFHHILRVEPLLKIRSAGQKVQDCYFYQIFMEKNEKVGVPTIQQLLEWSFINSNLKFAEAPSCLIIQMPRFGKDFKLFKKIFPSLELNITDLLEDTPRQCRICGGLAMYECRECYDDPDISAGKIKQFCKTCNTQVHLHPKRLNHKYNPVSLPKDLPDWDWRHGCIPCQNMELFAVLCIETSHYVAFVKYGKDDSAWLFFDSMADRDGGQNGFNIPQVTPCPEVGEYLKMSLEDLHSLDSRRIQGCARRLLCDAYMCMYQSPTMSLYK

The chains behind the UniProt entries cited, without tags or fusion partners.
UniProt Q14258: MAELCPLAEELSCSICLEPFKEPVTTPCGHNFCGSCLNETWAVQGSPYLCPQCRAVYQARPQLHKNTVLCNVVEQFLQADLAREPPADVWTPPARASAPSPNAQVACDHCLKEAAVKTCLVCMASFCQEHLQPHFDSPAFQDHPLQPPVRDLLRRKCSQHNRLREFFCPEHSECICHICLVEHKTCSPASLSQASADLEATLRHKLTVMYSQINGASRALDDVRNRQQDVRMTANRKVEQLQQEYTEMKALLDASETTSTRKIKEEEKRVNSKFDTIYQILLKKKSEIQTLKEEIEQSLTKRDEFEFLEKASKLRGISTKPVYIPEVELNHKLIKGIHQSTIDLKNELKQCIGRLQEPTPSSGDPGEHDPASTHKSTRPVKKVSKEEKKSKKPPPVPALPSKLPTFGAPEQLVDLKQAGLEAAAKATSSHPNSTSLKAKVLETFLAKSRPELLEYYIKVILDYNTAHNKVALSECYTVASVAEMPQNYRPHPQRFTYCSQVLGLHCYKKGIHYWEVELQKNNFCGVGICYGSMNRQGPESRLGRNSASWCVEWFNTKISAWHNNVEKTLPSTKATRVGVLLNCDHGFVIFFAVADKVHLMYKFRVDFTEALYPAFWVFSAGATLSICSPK

Another assay addresses T2, Flag-tagged A20 (UniProt P21580).
T2 sequence: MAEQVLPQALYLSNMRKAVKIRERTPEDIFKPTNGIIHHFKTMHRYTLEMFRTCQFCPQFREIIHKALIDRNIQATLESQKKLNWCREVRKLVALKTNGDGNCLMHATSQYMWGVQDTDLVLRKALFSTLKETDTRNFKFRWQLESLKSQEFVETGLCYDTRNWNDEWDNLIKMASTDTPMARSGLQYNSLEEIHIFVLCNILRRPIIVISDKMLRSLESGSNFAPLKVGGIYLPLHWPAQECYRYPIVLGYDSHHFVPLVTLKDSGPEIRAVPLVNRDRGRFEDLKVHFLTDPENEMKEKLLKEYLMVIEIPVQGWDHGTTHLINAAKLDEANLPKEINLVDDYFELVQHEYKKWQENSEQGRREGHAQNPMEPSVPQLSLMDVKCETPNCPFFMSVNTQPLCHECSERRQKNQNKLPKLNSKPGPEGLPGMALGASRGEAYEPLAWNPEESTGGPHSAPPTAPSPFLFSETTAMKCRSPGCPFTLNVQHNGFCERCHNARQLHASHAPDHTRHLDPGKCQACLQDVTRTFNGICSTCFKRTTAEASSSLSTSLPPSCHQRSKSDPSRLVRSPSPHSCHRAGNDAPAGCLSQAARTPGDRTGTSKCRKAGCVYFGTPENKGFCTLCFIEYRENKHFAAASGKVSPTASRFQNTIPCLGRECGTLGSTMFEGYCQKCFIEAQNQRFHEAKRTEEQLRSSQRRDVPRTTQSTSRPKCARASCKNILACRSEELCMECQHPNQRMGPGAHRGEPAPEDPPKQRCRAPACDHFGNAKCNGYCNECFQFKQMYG

In the next assay the target is T3, Flag-tagged CYLD (UniProt Q9NQC7).
T3 sequence: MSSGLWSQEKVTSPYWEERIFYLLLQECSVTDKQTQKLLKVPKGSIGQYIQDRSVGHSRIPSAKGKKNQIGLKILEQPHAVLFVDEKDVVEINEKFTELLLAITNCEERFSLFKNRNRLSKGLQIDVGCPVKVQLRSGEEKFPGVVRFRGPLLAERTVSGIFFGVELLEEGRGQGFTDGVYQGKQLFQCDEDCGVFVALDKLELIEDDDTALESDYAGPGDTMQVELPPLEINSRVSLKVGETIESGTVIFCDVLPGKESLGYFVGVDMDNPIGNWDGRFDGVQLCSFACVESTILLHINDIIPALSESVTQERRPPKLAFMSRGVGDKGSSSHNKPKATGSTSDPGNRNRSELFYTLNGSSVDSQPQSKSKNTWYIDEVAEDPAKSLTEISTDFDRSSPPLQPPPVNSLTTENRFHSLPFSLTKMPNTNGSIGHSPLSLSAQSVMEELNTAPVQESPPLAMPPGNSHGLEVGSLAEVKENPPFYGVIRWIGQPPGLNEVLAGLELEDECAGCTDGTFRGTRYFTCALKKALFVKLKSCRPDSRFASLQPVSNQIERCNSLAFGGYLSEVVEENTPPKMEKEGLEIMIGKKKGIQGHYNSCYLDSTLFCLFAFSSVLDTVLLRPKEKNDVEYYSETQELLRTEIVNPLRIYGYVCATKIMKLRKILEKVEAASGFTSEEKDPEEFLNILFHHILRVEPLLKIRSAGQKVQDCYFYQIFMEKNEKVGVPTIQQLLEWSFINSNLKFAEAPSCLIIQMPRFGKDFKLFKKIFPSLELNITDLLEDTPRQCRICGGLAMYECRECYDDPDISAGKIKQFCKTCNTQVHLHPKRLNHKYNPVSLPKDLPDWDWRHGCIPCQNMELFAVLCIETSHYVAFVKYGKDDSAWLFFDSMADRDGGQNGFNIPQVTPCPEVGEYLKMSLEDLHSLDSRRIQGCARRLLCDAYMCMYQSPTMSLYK

The target in another assay is Flag-tagged TRIM25 (UniProt Q14258).

No constants are given. Whether binding was seen depends on the method and setting. Binding seen in cells or lysates may run through a third protein. Some binding calls cover weakened binding; strength is not graded here. Where a sequence is shown, tags or fusion partners need not be part of it.

Among the data in publication PMC4906230 are binding values, retold here.

B1: Myc-tagged SDC4 (protein, UniProt P31431 19-198)
chain: ESIRETEVIDPQDLLEGRYFSGALPDDEDVVGPGQESDDFELSGSGDLDDLEDSMIGPEVVHPLVPLDNHIPERAGSGSQVPTEPKKLEENEVIPKRISPVEESEDVSNKVSMSSTVQGSNIFERTEVLAALIVGGIVGILFAVFLILLLMYRMKKKDEGSYDLGKKPIYKKAPTNEFYA
Turning to B1, the binding result was “no binding” in assay [1], “no binding” with Flag-tagged A20, “binds” in the assay with Flag-tagged CYLD and “no binding” with Flag-tagged TRIM25.
